Laboratory results as given in patent publication US20220267464A1 (Hoffmann-La Roche, published 2022).

How the values were obtained:
[1] = target: T1, human CEACAM5 (carcinoembryonic antigen, CEA) on cells (human, UniProt P06731 35-685); experiment: flow cytometry, CHO-k1-huCEACAM5 clone 11
T1 construct: endogenous on MKN45 gastric adenocarcinoma cells; full-length cDNA stably transfected in the CHO-K1 clones; also called huCEACAM5; MKN45 cells
T1 sequence: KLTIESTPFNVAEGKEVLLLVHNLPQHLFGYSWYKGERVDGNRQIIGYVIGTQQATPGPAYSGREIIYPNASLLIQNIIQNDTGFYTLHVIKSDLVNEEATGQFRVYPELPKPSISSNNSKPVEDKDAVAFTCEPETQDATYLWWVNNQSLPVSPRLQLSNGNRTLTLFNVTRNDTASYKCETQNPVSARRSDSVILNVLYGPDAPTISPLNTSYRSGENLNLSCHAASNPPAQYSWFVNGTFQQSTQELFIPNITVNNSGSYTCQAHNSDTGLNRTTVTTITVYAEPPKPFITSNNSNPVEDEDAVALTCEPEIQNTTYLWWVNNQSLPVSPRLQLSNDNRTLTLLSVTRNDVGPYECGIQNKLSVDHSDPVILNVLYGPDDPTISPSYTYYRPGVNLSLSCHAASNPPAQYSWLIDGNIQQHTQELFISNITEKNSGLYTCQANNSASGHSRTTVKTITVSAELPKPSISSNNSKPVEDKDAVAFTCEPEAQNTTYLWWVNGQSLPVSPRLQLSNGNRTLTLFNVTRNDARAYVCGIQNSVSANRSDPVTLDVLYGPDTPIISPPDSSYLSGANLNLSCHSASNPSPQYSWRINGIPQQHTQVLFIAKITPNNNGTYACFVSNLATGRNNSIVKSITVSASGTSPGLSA

[2] = target: T1, human CEACAM5 (carcinoembryonic …); experiment: flow cytometry, CHO-k1-huCEACAM5 clone 17; set-up: unit not given beside the values
[3] = target: T2, cynomolgus monkey CEACAM5 on CHO-k1-cynoCEACAM5 clone 8 cells (cynomolgus monkey); experiment: cell-based or functional assay; set-up: AUC of activation curve, Jurkat-hu4-1BB-NFκB-luc2, no CEA+ cells / AUC of activation curve, Jurkat-hu4-1BB-NFκB-luc2 with CHO-k1-cyno CEACAM5 clone 8: unit not given beside the values
[4] = target: human 4-1BB on Jurkat-hu4-1BB-NFκB-luc2 reporter cells (human, UniProt Q07011 24-255); experiment: cell-based or functional assay; set-up: AUC of activation curve, Jurkat-hu4-1BB-NFκB-luc2, no CEA+ cells / AUC of activation curve, Jurkat-hu4-1BB-NFκB-luc2 with CHO-k1-cyno CEACAM5 clone 8: unit not given beside the values
[5] = target: T1, human CEACAM5 (carcinoembryonic …); experiment: cell-based or functional assay; set-up: AUC of activation curve, Jurkat-hu4-1BB-NFκB-luc2, no CEA+ cells / AUC of activation curve, Jurkat-hu4-1BB-NFκB-luc2 with CHO-k1-cyno CEACAM5 clone 8: unit not given beside the values
[6] = target: T2, cynomolgus monkey CEACAM5 on …; experiment: flow cytometry, CHO-k1-cynoCEACAM5 clone 8; set-up: unit not given beside the values
[7] = target: T1, human CEACAM5 (carcinoembryonic …); experiment: flow cytometry, CHO-k1-huCEACAM5 clone 13
[8] = target: T1, human CEACAM5 (carcinoembryonic …); experiment: flow cytometry, CHO-k1-huCEACAM5 clone 12
[9] = target: T1, human CEACAM5 (carcinoembryonic …); experiment: flow cytometry, CHO-k1-huCEACAM5 clone 12; set-up: unit not given beside the values
[10] = target: T1, human CEACAM5 (carcinoembryonic …); experiment: cell-based or functional assay
[11] = target: T1, human CEACAM5 (carcinoembryonic …); experiment: flow cytometry, CHO-k1-huCEACAM5 clone 13; set-up: unit not given beside the values
[12] = target: T1, human CEACAM5 (carcinoembryonic …); experiment: flow cytometry, CHO-k1-huCEACAM5 clone 17
[13] = target: T1, human CEACAM5 (carcinoembryonic …); experiment: flow cytometry, CHO-k1-huCEACAM5 clone 11; set-up: unit not given beside the values

Chain of UniProt Q07011 (Q07011 24-255 limits assumed): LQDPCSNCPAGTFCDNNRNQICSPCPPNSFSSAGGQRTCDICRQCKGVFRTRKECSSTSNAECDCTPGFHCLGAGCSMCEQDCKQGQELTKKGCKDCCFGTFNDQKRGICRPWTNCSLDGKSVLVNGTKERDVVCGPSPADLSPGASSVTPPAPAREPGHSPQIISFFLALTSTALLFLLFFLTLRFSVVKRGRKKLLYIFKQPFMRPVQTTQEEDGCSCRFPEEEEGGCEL

| Binder | EC50 [1] | AUC [2] | AUC of activation curve, Jurkat-hu4-1BB-NFκB-luc2 with CHO-k1-cyno CEACAM5 clone 8 [3] | AUC of activation curve, Jurkat-hu4-1BB-NFκB-luc2, no CEA+ cells [4] | AUC of activation curve, Jurkat-hu4-1BB-NFκB-luc2 with CHO-k1-human CEACAM5 clone 11 [5] | AUC of activation curve, Jurkat-hu4-1BB-NFκB-luc2 with CHO-k1-human CEACAM5 clone 12 [5] | AUC [6] | EC50 [7] | EC50 [8] | AUC [9] | EC50, NFκB-luciferase in Jurkat-hu4-1BB-NFκB-luc2 with CHO-k1-human CEACAM5 clone 11 [10] | EC50, NFκB-luciferase in Jurkat-hu4-1BB-NFκB-luc2 with CHO-k1-human CEACAM5 clone 12 [10] | AUC [11] | EC50 [12] | AUC [13] |
| --- | --- | --- | --- | --- | --- | --- | --- | --- | --- | --- | --- | --- | --- | --- | --- |
| CEA(huMFE23-L28-H24)-4-1BBL (Fc fusion, split trimeric 4-1BBL Fc (kih) P329G LALA with one anti-CEA Fab; also called CEA(MFE23-L28-H24)-4-1BBL) chain 1: REGPELSPDDPAGLLDLRQGMFAQLVAQNVLLIDGPLSWYSDPGLAGVSLTGGLSYKEDTKELVVAKAGVYYVFFQLELRRVVAGEGSGSVSLALHLQPLRSAAGAAALALTVDLPPASSEARNSAFGFQGRLLHLSAGQRLGVHLHTEARARHAWQLTQGATVLGLFRVTPEIPAGLGGGGSGGGGSREGPELSPDDPAGLLDLRQGMFAQLVAQNVLLIDGPLSWYSDPGLAGVSLTGGLSYKEDTKELVVAKAGVYYVFFQLELRRVVAGEGSGSVSLALHLQPLRSAAGAAALALTVDLPPASSEARNSAFGFQGRLLHLSAGQRLGVHLHTEARARHAWQLTQGATVLGLFRVTPEIPAGLGGGGSGGGGSRTVAAPSVFIFPPSDRKLKSGTASVVCLLNNFYPREAKVQWKVDNALQSGNSQESVTEQDSKDSTYSLSSTLTLSKADYEKHKVYACEVTHQGLSSPVTKSFNRGE[human IgG1 Fc with changes not spelt out] chain 2: REGPELSPDDPAGLLDLRQGMFAQLVAQNVLLIDGPLSWYSDPGLAGVSLTGGLSYKEDTKELVVAKAGVYYVFFQLELRRVVAGEGSGSVSLALHLQPLRSAAGAAALALTVDLPPASSEARNSAFGFQGRLLHLSAGQRLGVHLHTEARARHAWQLTQGATVLGLFRVTPEIPAGLGGGGSGGGGSASTKGPSVFPLAPSSKSTSGGTAALGCLVEDYFPEPVTVSWNSGALTSGVHTFPAVLQSSGLYSLSSVVTVPSSSLGTQTYICNVNHKPSNTKVDEKVEPKSC heavy: QVQLVQSGAEVKKPGASVKVSCKASGFNIKDSYMHWVRQAPGQGLEWMGWIDPENGDTEYAPKFQGRVTMTTDTSISTAYMELSRLRSDDTAVYYCNEGTPTGPYYFDYWGQGTLVTVSSASTKGPSVFPLAPSSKSTSGGTAALGCLVKDYFPEPVTVSWNSGALTSGVHTFPAVLQSSGLYSLSSVVTVPSSSLGTQTYICNVNHKPSNTKVDKKVEPKSCDKTHTCPPCPAPEAAGGPSVFLFPPKPKDTLMISRTPEVTCVVVDVSHEDPEVKFNWYVDGVEVHNAKTKPREEQYNSTYRVVSVLTVLHQDWLNGKEYKCKVSNKALGAPIEKTISKAKGQPREPQVCTLPPSRDELTKNQVSLSCAVKGFYPSDIAVEWESNGQPENNYKTTPPVLDSDGSFFLVSKLTVDKSRWQQGNVFSCSVMHEALHNHYTQKSLSLSP light: EIQMTQSPSSLSASVGDRVTITCRASSSVPYMHWLQQKPGKAPKLLIYSTSNLASGVPSRFSGSGSGTDFTLTISSVQPEDFATYYCQQRSSYPLTFGGGTKLEIKRTVAAPSVFIFPPSDEQLKSGTASVVCLLNNFYPREAKVQWKVDNALQSGNSQESVTEQDSKDSTYSLSSTLTLSKADYEKHKVYACEVTHQGLSSPVTKSFNRGEC | 1.93 nM | 26000 | 3600 | 2560 | 161000 | 163000 | 275 | 6.2 nM | 4.83 nM | 74700 | 0.06 nM | 0.04 nM | 101000 | 1.93 nM | 24100 |
| CEA(huMFE23-L28-H28)-4-1BBL (Fc fusion, split trimeric 4-1BBL Fc (kih) P329G LALA with one anti-CEA Fab; also called CEA(MFE23-L28-H28)-4-1BBL) chain 1: REGPELSPDDPAGLLDLRQGMFAQLVAQNVLLIDGPLSWYSDPGLAGVSLTGGLSYKEDTKELVVAKAGVYYVFFQLELRRVVAGEGSGSVSLALHLQPLRSAAGAAALALTVDLPPASSEARNSAFGFQGRLLHLSAGQRLGVHLHTEARARHAWQLTQGATVLGLFRVTPEIPAGLGGGGSGGGGSREGPELSPDDPAGLLDLRQGMFAQLVAQNVLLIDGPLSWYSDPGLAGVSLTGGLSYKEDTKELVVAKAGVYYVFFQLELRRVVAGEGSGSVSLALHLQPLRSAAGAAALALTVDLPPASSEARNSAFGFQGRLLHLSAGQRLGVHLHTEARARHAWQLTQGATVLGLFRVTPEIPAGLGGGGSGGGGSRTVAAPSVFIFPPSDRKLKSGTASVVCLLNNFYPREAKVQWKVDNALQSGNSQESVTEQDSKDSTYSLSSTLTLSKADYEKHKVYACEVTHQGLSSPVTKSFNRGE[human IgG1 Fc with changes not spelt out] chain 2: REGPELSPDDPAGLLDLRQGMFAQLVAQNVLLIDGPLSWYSDPGLAGVSLTGGLSYKEDTKELVVAKAGVYYVFFQLELRRVVAGEGSGSVSLALHLQPLRSAAGAAALALTVDLPPASSEARNSAFGFQGRLLHLSAGQRLGVHLHTEARARHAWQLTQGATVLGLFRVTPEIPAGLGGGGSGGGGSASTKGPSVFPLAPSSKSTSGGTAALGCLVEDYFPEPVTVSWNSGALTSGVHTFPAVLQSSGLYSLSSVVTVPSSSLGTQTYICNVNHKPSNTKVDEKVEPKSC heavy: QVQLVQSGAEVKKPGASVKVSCKASGFNIKDSYMHWVRQAPGQGLEWMGWIDPENGDTEYAPKFQGRVTMTRDTSISTAYMELSRLRSDDTAVYYCNEGTPTGPYYFDYWGQGTLVTVSSASTKGPSVFPLAPSSKSTSGGTAALGCLVKDYFPEPVTVSWNSGALTSGVHTFPAVLQSSGLYSLSSVVTVPSSSLGTQTYICNVNHKPSNTKVDKKVEPKSCDKTHTCPPCPAPEAAGGPSVFLFPPKPKDTLMISRTPEVTCVVVDVSHEDPEVKFNWYVDGVEVHNAKTKPREEQYNSTYRVVSVLTVLHQDWLNGKEYKCKVSNKALGAPIEKTISKAKGQPREPQVCTLPPSRDELTKNQVSLSCAVKGFYPSDIAVEWESNGQPENNYKTTPPVLDSDGSFFLVSKLTVDKSRWQQGNVFSCSVMHEALHNHYTQKSLSLSP light: EIQMTQSPSSLSASVGDRVTITCRASSSVPYMHWLQQKPGKAPKLLIYSTSNLASGVPSRFSGSGSGTDFTLTISSVQPEDFATYYCQQRSSYPLTFGGGTKLEIKRTVAAPSVFIFPPSDEQLKSGTASVVCLLNNFYPREAKVQWKVDNALQSGNSQESVTEQDSKDSTYSLSSTLTLSKADYEKHKVYACEVTHQGLSSPVTKSFNRGEC | 2.98 nM | 23100 | 3420 | 2530 | 147000 | 146000 | 270 | 15.4 nM | 8.32 nM | 65900 | 0.1 nM | 0.07 nM | 78500 | 3.26 nM | 21700 |
